In all, about 390,000 compounds went through this assay and about 4,000 (1%) were called active. Inconclusive means that the source gave no clear call. Such entries were picked first, then a sample of the others. Calls come from the whole dose curve; as a rule, active = well fitted inhibition curve with a large enough effect; inconclusive = small, poorly fitted or top-dose-only effect; inactive = no such curve, though single readings can be large or run the other way. Potencies of inconclusive entries are doubtful fits and often do not repeat.
Each compound was assayed against Thioredoxin reductase 1, cytoplasmic (Rattus norvegicus) (UniProt O89049) (assay: qHTS Assay for Inhibitors of Mammalian Selenoprotein Thioredoxin Reductase 1 (TrxR1): qHTS). Conditions: recombinant rTrxR1, NADPH fluorescence consumption, selenite substrate; series mostly up to 114 µM.
UniProt O89049, sequence (O89049 whole entry, looked up): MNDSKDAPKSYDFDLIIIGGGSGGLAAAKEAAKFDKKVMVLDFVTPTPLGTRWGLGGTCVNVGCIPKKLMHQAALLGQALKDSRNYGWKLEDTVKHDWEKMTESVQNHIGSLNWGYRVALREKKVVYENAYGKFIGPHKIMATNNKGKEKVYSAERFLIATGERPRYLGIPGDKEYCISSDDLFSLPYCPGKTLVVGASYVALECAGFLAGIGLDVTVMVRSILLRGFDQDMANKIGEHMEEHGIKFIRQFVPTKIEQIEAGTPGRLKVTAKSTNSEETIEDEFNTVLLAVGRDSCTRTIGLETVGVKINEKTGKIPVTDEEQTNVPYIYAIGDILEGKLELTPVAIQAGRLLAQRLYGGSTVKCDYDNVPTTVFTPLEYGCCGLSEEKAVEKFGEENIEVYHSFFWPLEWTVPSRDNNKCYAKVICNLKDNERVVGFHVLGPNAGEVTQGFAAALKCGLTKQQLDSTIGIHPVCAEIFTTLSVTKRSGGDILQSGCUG
In short: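 Rat TrxR1 (90 nM in the dispensed reagent) was pre-reduced with 400 uM NADPH for 5 min at room temperature, then incubated with compound for 15 min. After 400 uM selenite was added, NADPH fluorescence (Ex 340/Em 450 nm) was followed for 8 min.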
For `COc1cc2c(cc1OC)CN(C(=O)CCC(=O)c1ccc(F)cc1)CC2`, the Potency was “inactive”. In the case of `COC(CNC(=S)Nc1ccc([N+](=O)[O-])cc1)OC`, the Potency is reported as inconclusive: 15.8 µM [inhibitor, partial curve, poor fit]. `Cc1ccc(/C=C/C(=O)OC(C)C(=O)Nc2ccc(Cl)cn2)o1` (stereo not given) was tested, and the Potency was active: 14.1 µM. `CC(C)CCNC(=O)CCS(=O)(=O)c1cccc2nonc12` was tested, and the Potency was active: 56.2 µM. For `COc1cc(C=C2C(=O)OC(c3ccccc3)OC2=O)cc(Br)c1O` (stereo not given), the Potency was inconclusive: 22.4 µM [inhibitor, single point]. In the case of `Cc1ccnc(SCc2cc(=O)c(OC(=O)c3ccc(Br)o3)co2)n1`, the Potency is reported as inconclusive: 8.91 µM [inhibitor, full curve]. For `CCOC(=O)CNS(=O)(=O)c1ccc(F)cc1Br`, the Potency was inconclusive: 17.8 µM [inhibitor, partial curve, poor fit]. `CCc1ccccc1OCC(=O)Nc1cccc(S(=O)(=O)NCc2ccco2)c1` was tested, and the Potency was inconclusive: 56.2 µM [inhibitor, partial curve]. In the case of `Cc1ccc(NC(=O)CSc2ccc(-c3ccco3)nn2)c(C)c1`, the Potency is reported as inconclusive: 89.1 µM [inhibitor, partial curve, poor fit]. `O/N=C/CCn1c(=S)sc2ccccc21` was tested, and the Potency was inconclusive: 10 µM [inhibitor, partial curve, poor fit]. In the case of `O=C(CSc1nnc(COc2ccccc2)n1Cc1ccco1)c1ccc(F)cc1`, the Potency is reported as inconclusive: 50.1 µM [inhibitor, partial curve]. With `COc1ccc(N2CCN(c3nc(=S)n(-c4ccccc4)c(C)c3C(C)=O)CC2)cc1` the Potency was inconclusive: 44.7 µM [inhibitor, single point]. For `COC(=O)CCNC(=O)NC(CCC(C)C)c1c(-n2cccc2)sc2c1CCN(C)C2` (stereo not given), the Potency was inconclusive: 89.1 µM [inhibitor, single point]. `O=c1c2ccccc2oc2ccc(-c3ccoc3)cc12` was tested, and the Potency was inconclusive: 56.2 µM [inhibitor, single point]. In the case of `CSc1ccc(NC(N)=S)cc1`, the Potency is reported as “inactive”. With `CSS(=O)(=O)c1cccc2cccnc12` the Potency was “inactive”. For `Cn1c(=O)c2c(nc(Br)n2Cc2nnc(N)s2)n(C)c1=O`, the Potency was inconclusive: 89.1 µM [inhibitor, single point]. For `CCCc1ccc(Oc2coc3cc(OCC(=O)Nc4ccccc4C)ccc3c2=O)cc1`, the Potency was “inactive”. In the case of `Cc1ccc(S(=O)(=O)CC2CSc3nc(N)cc(=O)n32)cc1` (stereo not given), the Potency is reported as “inactive”. In the case of `O=C(c1ccc(F)cc1)N1CCC(c2nc(-c3ccc(S(=O)(=O)N4CCCC4)cc3)no2)CC1`, the Potency is reported as “inactive”. With `Cc1c(CC(=O)NC(C)C)c(=O)oc2cc3c(cc12)CCC(C)(C)O3` the Potency was inconclusive: 89.1 µM [inhibitor, single point]. With `CC(C)[C@H](NC(=O)c1ccc(Cl)cc1Cl)C(=O)NNC(=O)c1ccco1` the Potency was “inactive”. With `c1ccc(CCCCNCC2COc3ccccc3O2)cc1` (stereo not given) the Potency was inconclusive: 44.7 µM [inhibitor, partial curve]. With `COc1cc2c(NC3CCN(C)CC3)nc(N3CCCN(C)CC3)nc2cc1OCC1CCCCN1` (stereo not given) the Potency was inconclusive: 39.8 µM [inhibitor, full curve, poor fit]. In the case of `CC(=O)CC(=O)NC1CCc2ccccc21` (stereo not given), the Potency is reported as inconclusive: 89.1 µM [inhibitor, single point]. With `O=C(/C=C/c1ccc(N2CCC(c3ccccc3)=N2)cc1)c1ccccc1` the Potency was inconclusive: 31.6 µM [inhibitor, partial curve]. `COC(=O)c1ccc(C(c2c(N)n(CC(C)C)c(=O)[nH]c2=O)N2CCN(c3ccccc3)CC2)cc1` (stereo not given) was tested, and the Potency was inconclusive: 0.708 µM [inhibitor, full curve]. In the case of `C#CCOc1ccc(/C=C2/C(=O)ON=C2C)cc1OCC`, the Potency is reported as inconclusive: 22.4 µM [inhibitor, single point]. With `COc1ccc(CN2C(=O)N(c3ccc(F)cc3)C(=O)C2CC(=O)Nc2cc(OC)cc(OC)c2)cc1` (stereo not given) the Potency was “inactive”. With `COC(=O)c1ccccc1NC(=S)NC(=O)c1ccc2c(c1)OCO2` the Potency was active: 8.91 µM. With `Cc1ccccc1NC(=S)NC(NC(=O)c1ccco1)C(Cl)(Cl)Cl` (stereo not given) the Potency was inconclusive: 20 µM [inhibitor, full curve]. With `O=C(NC(=S)Nc1ccc2c(c1)OCCO2)c1cccc2ccccc12` the Potency was inconclusive: 12.6 µM [inhibitor, partial curve]. For `CC1CN(C(=O)COC(=O)CSc2ccc([N+](=O)[O-])cc2)CC(C)O1` (stereo not given), the Potency was inconclusive: 35.5 µM [inhibitor, partial curve, poor fit]. In the case of `CCCCn1c(N)c(N(CC(C)C)C(=O)CSc2nn(-c3ccc(F)cc3)c(=S)s2)c(=O)[nH]c1=O`, the Potency is reported as “inactive”. For `Cc1ccc(S(=O)(=O)c2c(Nc3cc(C)ccc3C)sc(C(=O)c3ccc4c(c3)OCO4)c2N)cc1`, the Potency was “inactive”. With `COc1ccc(OCCN(C)Cc2c(O)ccc3ccccc23)cc1` the Potency was inconclusive: 8.91 µM [inhibitor, full curve]. For `CCOc1ccc(NC(=O)CSc2nnc3c(n2)[nH]c2ccc(S(=O)(=O)N4CCCCC4)cc23)cc1`, the Potency was “inactive”. `O=C(N/N=C\C=C\c1ccco1)c1cncc(Br)c1` was tested, and the Potency was active: 50.1 µM. `O=C(CS(=O)c1ccc(C(F)(F)F)cc1[N+](=O)[O-])Oc1ccccc1` (stereo not given) was tested, and the Potency was inconclusive: 44.7 µM [inhibitor, single point]. For `Cc1oc(C(=O)O)cc1CSCc1ccoc1C(=O)O`, the Potency was “inactive”. `Cc1[nH]n(C)c(=O)c1[N+](=O)[O-]` was tested, and the Potency was inconclusive: 44.7 µM [inhibitor, partial curve, poor fit]. With `O=C1C(Cl)=C(NCCc2ccccc2)C(=O)c2ccccc21` the Potency was inconclusive: 0.708 µM [inhibitor, partial curve, poor fit]. With `CCCCOC(=O)n1c(=S)oc2cc(Cl)ccc21` the Potency was inconclusive: 15.8 µM [inhibitor, partial curve]. For `O=C1ON=C(c2ccccc2)/C1=C/c1ccccc1`, the Potency was active: 4.47 µM. For `CC12CCC(C(=O)N3CCC(Cc4ccccc4)CC3)(C(=O)C1=O)C2(C)C` (stereo not given), the Potency was inconclusive: 100 µM [inhibitor, partial curve, poor fit]. In the case of `O=C(COc1ccc(Cl)cc1)NCC(=O)N1CCC2(CC1)NCCc1[nH]cnc12`, the Potency is reported as “inactive”. In the case of `Cc1occc1-c1nnc(SCC(=O)c2ccc(F)cc2)n1Cc1ccco1`, the Potency is reported as inconclusive: 20 µM [inhibitor, single point]. With `Cc1ccc(NC(=O)CSc2nc(-c3ccc(C(C)(C)C)cc3)nc3cc(=O)[nH]n23)cc1C` the Potency was “inactive”. With `O=C(NCC1CCCO1)c1ccc([N+](=O)[O-])o1` (stereo not given) the Potency was “inactive”. In the case of `N/C(=N\OC(=O)c1ccccc1Cl)c1ccccn1`, the Potency is reported as “inactive”. For `COc1ccc(OC)c(NC(=O)CSc2cn(CC(=O)N3CCCCCC3)c3ccccc23)c1`, the Potency was “inactive”. For `COC(=O)c1cc(OC)c(OC)cc1NCC(=O)Nc1ccc(OC)c(OC)c1`, the Potency was inconclusive: 39.8 µM [inhibitor, single point]. With `Cc1ccc2nc(-c3ccccn3)oc2c1` the Potency was inconclusive: 70.8 µM [inhibitor, single point]. For `COc1ccc(CCN(C)C(=O)c2cc(-c3ccccc3)nc3ccc(C)cc23)cc1OC`, the Potency was inconclusive: 89.1 µM [inhibitor, partial curve, poor fit]. In the case of `Cc1cc(C(=O)OCC(=O)N2CC(C)CC(C)C2)c(C)o1` (stereo not given), the Potency is reported as inconclusive: 63.1 µM [inhibitor, single point]. With `Cc1cc(-c2n[nH]c(=S)n2Cc2ccco2)n(C)n1` the Potency was inconclusive: 2.51 µM [inhibitor, partial curve, poor fit]. With `O=C(C1=C[C@@H](c2ccc(Br)cc2)C[C@@H](OCc2ccc(CO)cc2)O1)N1CCN(Cc2ccccc2)CC1` the Potency was “inactive”. For `O=C(Nc1ccc(N2CCN(c3ccc(F)cc3)CC2)c(C(=O)O)c1)c1ccccc1F`, the Potency was “inactive”. With `Cc1cccc(NC(=O)CSCC(=O)NCc2ccco2)c1` the Potency was inconclusive: 50.1 µM [inhibitor, partial curve]. `NC(=S)n1[nH]c(-c2ccccc2)c(N=Nc2ccccc2C(=O)N2CCOCC2)c1=O` was tested, and the Potency was inconclusive: 25.1 µM [inhibitor, single point]. With `CCOc1ccc(C2c3[nH]c4ccccc4c3CCN2Cc2cccn2-c2ncccn2)cc1` (stereo not given) the Potency was “inactive”. `O=C(c1ccc(CS(=O)(=O)c2ccc(Br)cc2)o1)N1CCOCC1` was tested, and the Potency was inconclusive: 79.4 µM [inhibitor, single point]. With `CC(=O)c1sc(C(=O)O)c(-c2ccco2)c1-c1ccco1` the Potency was inconclusive: 50.1 µM [inhibitor, partial curve, poor fit]. With `O=C(c1ccc(S(=O)(=O)Cc2ccccc2Cl)c([N+](=O)[O-])c1)N1CCN(c2ccccn2)CC1` the Potency was inconclusive: 17.8 µM [inhibitor, partial curve]. With `COc1ccc(C(=O)NC(=S)N2CCNC(=O)C2CC(=O)OC(C)C)cc1` (stereo not given) the Potency was inconclusive: 70.8 µM [inhibitor, single point]. With `O=[N+]([O-])c1cc(Br)cc(C=Nc2ccc3c(c2)OCO3)c1O` the Potency was active: 44.7 µM. With `COc1ccc(-c2cc(C#N)nc(NN)n2)cc1` the Potency was “inactive”. For `CC1(c2nnc(-c3cccc(Cl)c3)o2)CC(c2ccccc2F)=NO1` (stereo not given), the Potency was inconclusive: 22.4 µM [inhibitor, single point]. For `Cc1occc1C(=O)NCCc1ccc(Cl)cc1`, the Potency was inconclusive: 10 µM [inhibitor, partial curve, poor fit]. `O=[N+]([O-])c1ccccc1/C=N/n1c(C2CCCCC2)n[nH]c1=S` was tested, and the Potency was inconclusive: 2.24 µM [inhibitor, full curve].

Source: PubChem BioAssay AID588453 (National Center for Advancing Translational Sciences (NCATS), 2011)
Note: nearly all actives have a fitted effect of over 65% in size.
Potency is the fitted concentration of half-maximal effect; tags give direction and shape of the fitted curve.
